Laboratory results from the RNAGym collection of RNA variant scans (doi:10.7554/elife.90254).
The source gives no read counts; variants with many changes may rest on few reads.

B1: OR4K15 (parent)
chain: GUUAACGGUCAUAGGCCAUGGAAACUAGGAGCACCAUUUCGCUGCCAGUGAAGAAAUGAACAAAGAAAAUCUGGGCCAGGCAGGCAUCAAAAGAAAUAGUCUUGCGCUCAACCAGAAAGUCUGUAAUCAUUUUAAGGGUA

Variants of: B1
Assay: self-cleavage, relative activity (ratio to wild type); higher = more cleavage; in vitro, sequencing; the parent is a self-cleaving ribozyme

Row | Variant | self-cleavage
1 | U2A A78G A89G | 0.6
2 | C81G U108C A117G | 0.01
3 | A24C A30G U57C U130C | 0.86
4 | U26A A64G U87C U124C | 0.61
5 | A5G G7U A47U A125G | 0.11
6 | U19C U38C U39A A67G U132C | 0.34
7 | A5G A62G U100A U127C | 0.1
8 | U9C C35U U122C | 0.76
9 | U38A A66G A68U U70C U102C | 1.05
10 | A13G A54U A55G U127A | 1.36
11 | U39C U43A A47G A96G | 1.55
12 | A23U A24G A69G A96G U124C U127C | 0.42
13 | U72A A94G A110U A117G A135G | 0.1
14 | U38C G48A U57C A63G U72C U130G | 0.06
15 | A5G A54G U70A | 1.23
16 | U19C C32U U49C | 1.16
17 | A78U C81G U108G | 0.01
18 | U3C U39C A64G A91U | 0.96
19 | A13G U37C A90U A117G | 1.39
20 | U38C U57G U70C U87A A90G | 0.46
21 | A51G U103C U122C A129G A134G | 0.05
22 | A5G A95G A126U U133A | 0.56
23 | A33G U102C U122A | 2.06
24 | A30G A59U U87C U108C A111G U139A | 0.02

Row | Variant | self-cleavage
25 | U37A U130C U132C | 1.23
26 | A5C U9A U37C G104A | 0.03
27 | A18G A54U A60G A129G | 0.84
28 | U2C G83U A94G C105U | 0.05
29 | U43A A55G A68G | 1.54
30 | A13G A52U A96U | 1.5
31 | U26C A98G G106A U139C | 0
32 | A23G A68U A78U A116G | 0.05
33 | A54G U100C A114G | 0.67
34 | A63G A82U A94G U108C | 0.05
35 | A78G U108A U131C | 0.01
36 | A22G U70C A90G A98G | 0.19
37 | A36U A69G A89G | 1.46
38 | A96G U120C U139A | 0.48
39 | U19C A22G U38C A116G A126G A140G | 0.74
40 | U38C A47G A98U A129G | 1.31
41 | U9C C16U A54G A60G | 0.84
42 | A24C A33G U43C A114U | 0.03
43 | A69G U132A A134G | 1.57
44 | U43A A54G U127C | 0.93
45 | A78G A118U U120A | 0.16
46 | A36G A51G U57C A95G A125G | 0.55
47 | A54G A55G C101U U103C | 0.05
48 | A5G A64C A78C G106A A117U | 0.01

Row | Variant | self-cleavage
49 | A36G A51G A116G | 0.72
50 | U9C A11U U49C | 1.43
51 | U12C A24G A90C | 1.72
52 | A52G A117G U122C | 1.32
53 | U9C A30G G79A U120G | 0.15
54 | U9C A30G U57C G58A A60G U100C | 1.89
55 | A62C A68U A94G U102A | 0.58
56 | A52G A59G U87A A90G | 0.12
57 | A18G A52G A54G C107G | 0.06
58 | A55G U87C A91U A117G | 2.02
59 | U43A A47G A91G A95G A135G | 1.98
60 | G58U A69C A91G A126G | 0.52
61 | U19A G58U A60G A91G | 0.53
62 | A23G A33G A52G | 0.78
63 | A51U A64G G104U U120C | 0
64 | U2C A54U A90G | 0.45
65 | U38C A62G A78G | 0.25
66 | A5G A54G G80U | 0.13
67 | A55U A59G U100G A117G | 1.68
68 | U72A A98U U132A | 0.1
69 | C61U A94G G119A U139C | 1.6
70 | A64G A116G U130C | 0.3
71 | A4G C45U A78G A92G A96G | 0.04
72 | U9C A18G A86G U122C | 1.55

Row | Variant | self-cleavage
73 | A30G U38C A56G | 0.74
74 | A30G A33G U72A U127G A135U | 0.14
75 | U43G A82U C121U U132C | 0.15
76 | U72A A82U G106U U108A | 0.01
77 | A30U A66G A69U A78G | 0.16
78 | A22G U43C U120A | 1.25
79 | G21A U72G A82G U132C | 0.22
80 | C40A U43C U130C | 0.62
81 | U2C A13U A18G A51G A64G | 1.36
82 | A5G U39C U43A U87G | 0.52
83 | A96G A111G A114G A129G | 0
84 | A33G A62G A86G A114G A125G | 0.02
85 | U39C A68C A86G A118G | 1.63
86 | G1U A90G A94C U124C | 0.98
87 | U49A G75C A78G A96G G138A | 0.15
88 | A24G U49G U100C U102C U132C | 0.63
89 | A22U A23G U87C | 1.63
90 | U26G U37C A126G | 1.58
91 | A22G A51G U100C A126G | 0.82
92 | A24G U87A U108C | 0.02
93 | A18U G31A G74A U122C A129G | 0.13
94 | A22G U122C A126G | 1.02
95 | A33G A52U A56G C105U A116U U122C | 0.01
96 | A22G A68G A90G | 1.22

Row | Variant | self-cleavage
97 | A78G U103A A117G | 0.13
98 | U39C U87C A95G U100C | 0.18
99 | U72C U87C U108C | 0
100 | U39A A63G A90U | 2.38
101 | A33G U39A A56G A90G | 1.42
102 | G14A A24C U39C A82C A95G | 0.08
103 | U12C A23G C45A A78U | 0.65
104 | A52G U102A A140U | 0.87
105 | U38C A62G A94G A117G | 1.81
106 | U49C A69G A91G A94G A110C | 0.13
107 | A51C U72C A118G | 0.17
108 | U9C U102A A111G U132C A135G | 0
109 | U26C A27G U37C C46U | 0.47
110 | A23G A51G A59U | 0.28
111 | A96U A114U A116G U127G A134G | 0
112 | U39C A64U A66G A82G | 1.09
113 | U19C U39A U43C U108C | 0.02
114 | U102C U122A A129G | 1.47
115 | A11G U49A G53U A64G U87C A126U | 1.23
116 | U2C A24G A33G A54G A68U | 1.27
117 | A86U A92C A111G | 0.01
118 | A4G A52G U87C A95G | 1.42
119 | A4G U100C A110G A117G | 0.36
120 | A47U U49A U124G | 0.36

Row | Variant | self-cleavage
121 | U9C A52G A116G U120C | 0.14
122 | A24G U38A U120C | 1.03
123 | A5G A11U U49C U100C | 1.38
124 | A5G U39C A47G A54G | 1.27
125 | A30G A33U A69G A96G U108C | 0.03
126 | A30G A94G C105U U122C U127A G137A | 0.24
127 | A54G U72A C105U A111G | 0
128 | U3C A89G A110G U122C | 0.03
129 | A63G A94G A114G U122C | 0.06
130 | A22G A63G U103C | 0.65
131 | A69G U103C A111G | 0.03
132 | A5G A11G A23C U39C G50A A67G | 0.88
133 | A63G A94G A140G | 2.17
134 | U43A A54U U72C U102C U139C | 0.29
135 | U37C A86U U131C | 2.15
136 | U9C A23G A51G A54C U72A A95G A110G | 0.09
137 | A5G A69G U87A G137A | 0.33
138 | U72A A98G U124C A135U | 0.02
139 | A51C G83A A126C | 0.86
140 | A78G U120C U127C | 0.09
141 | U43A A52C A64G | 1.52
142 | U43C U57C U70C | 0.63
143 | A22G A51U A67G A116U | 0.24
144 | U12C A47U C109U | 0.36

Row | Variant | self-cleavage
145 | G21U A91G U102C | 1.64
146 | A59G A63U A78U A118G | 0.18
147 | A30G G31C U37A G58A A62G A82G U124G | 0.12
148 | A52G A68G A94G U102C | 1.04
149 | G8C U19C U49C A114G U120C | 0.14
150 | A47G A56G A82G A116G A117G | 0.09
151 | U26C A55G A63G U70A A82G A117U | 0.3
152 | A60G A62G A67G A78G A89G A111U | 0.02
153 | U26A A126G U131G | 1.75
154 | A89U U108A U122G | 0.01
155 | A27G A67G A116G | 0.45
156 | A5G U87C A95G A117G | 1.79
157 | A91G U103C A111G | 0.01
158 | U37C G50U A110G U122C U131C | 0.1
159 | U2C A66G G80U U131C | 0.08
160 | A24G G58U A86G A117U U132C | 0.68
161 | A18U A23G U57C A91G U97C A118G U133C | 0.33
162 | A78U U97A U122C | 0.29
163 | A51G A67G U122A | 1.87
164 | U2C A11C U43C A82U A110U A118G | 0.05
165 | C17A A94U A118C U132C | 0.17
166 | A67G A69G U70C | 0.18
167 | U9C A22G C76U C113U | 0.05
